Reference: the RNAGym collection of RNA variant scans (doi:10.1073/pnas.2313332121)
This sample is rich in variants without activity.

B1: TPR 5TU (parent)
chain: GGAUCUUCUCGAUCUAACAAAAAAGACAAAUCUGCCACAAAGCUUGAGAGCAUCUUCGGAUGCAGAGGCGGCAGCCUUCGGUGGCGCGAUAGCGCCAACGUUCUCAACUAUGACACGCAAAACGCGUGCUCCGUUGAAUGGAGUUUAUCAUG

Variants of: B1
Assay: polymerase ribozyme fitness, log enrichment relative to wild type (log ratio); higher = more active; in vitro selection for triplet polymerase activity
Method in brief: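 Only genotypes with ≥10 input reads and ≥1 read per output were kept after Illumina sequencing of input and output libraries. These libraries were PCR-built, transcribed mutants of each subunit of a heterodimeric triplet polymerase ribozyme, each put through one triplicate in vitro selection round with frozen incubation at −7 °C, gel excision of extended constructs, streptavidin-bead capture and RT-PCR. Fitness is a logarithmic ratio of genotype enrichment to wild-type enrichment, from inverse-variance-weighted replicate averages, with the logarithm in base 2.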

Variant | polymerase ribozyme fitness (log ratio)
U78C G84U C99G A113U A115C G117U U135C U144A U148G | ≤ -4.2
U82G C125G | -1.76
G80A A91C G94A | -4.16
U78G C114U C125A C149U | ≤ -4.2
C79U G88A A91C | ≤ -4.2
G80A C85A | -0.619
U78C C85A C93U G117A U145A C149U | ≤ -4.2
C79U C87A | ≤ -4.2
C79G C93A C95A C125G C131U | ≤ -4.2
U77C G81C A106C G143U | ≤ -4.2
C79U G83A C85A U148A | ≤ -4.2
U82G G84A U145C | -0.385
G81C G126C U145C | 0.873
G80C C85U C105G A121G U148A | ≤ -4.2
G81A G86A U148A | -3.94
C79U C85A A89U A98U | ≤ -4.2
G80C G94A C96U A107G A147C | ≤ -4.2
G80A U146G U148C | -3.91
C79U G92U | -1.44
C79G A142C | ≤ -4.2
G83A C85A | ≤ -4.2

Variant | polymerase ribozyme fitness (log ratio)
U82A C125G | -0.33
U82A C125A | -0.504
U77G G80C C96U | ≤ -4.2
G81A C103A | -1.13
G80A G141A | -0.333
U77G U78C C85U | ≤ -4.2
C79U G83C G84C C108U | ≤ -4.2
G83A A91C A142G | ≤ -4.2
G81C A107G C114G A142G | ≤ -4.2
G80C G152U | ≤ -4.2
U82G C87U G92U A98G | -2.69
G81A C93G | -3.86
C79A C85U C93G | ≤ -4.2
G80A G84U U90G A106U G152U | ≤ -4.2
G80A A89G G117U | -1.48
U77C C116A C123U | ≤ -4.2
G81A C131G G140C | -4
U82C C96U A98G U104G C116A U134A | ≤ -4.2
U82G C96U A137C | -3.87
U78G G117A | ≤ -4.2
U82C G86C | ≤ -4.2

Variant | polymerase ribozyme fitness (log ratio)
G80U C95G C96A | ≤ -4.2
G81C U139A | ≤ -4.2
G83A C93G C95U A98U C108G | ≤ -4.2
C79G G124U U139C | ≤ -4.2
U77G C85U C108A A113G | ≤ -4.2
G81U C87G U134A | ≤ -4.2
U77C C93A A98U C125A U139G | ≤ -4.2
U82G U102G G152U | ≤ -4.2
C79U G84A C108A C114A C118A U139G | ≤ -4.2
U77G C87U C108A | ≤ -4.2
C79G G81U G133A | ≤ -4.2
G80A C87A G133C | ≤ -4.2
G81A C87U A97U | -1.53
U78A C85A U135G | ≤ -4.2
U77C G86C C105A A119U | ≤ -4.2
C79G G88A G94A | ≤ -4.2
C79A C99U U111A A147C | ≤ -4.2
G80C G94U U134A | ≤ -4.2
C79A G86U G88C C116U G141A | ≤ -4.2
U82G C93A | -2.46
G80A C87U C108G | ≤ -4.2

Variant | polymerase ribozyme fitness (log ratio)
C79U C105G | ≤ -4.2
C79G C125U A142C U148C U151G | ≤ -4.2
G81A C105U | 1.52
U78A U144C U146C | ≤ -4.2
G80C G86U G94C A137C | ≤ -4.2
U78A A91U | ≤ -4.2
G81A A115U A142U | -2.42
C79A U82C U145G | ≤ -4.2
U77C G81A A91G G128U G141C | ≤ -4.2
G80A G83U G124C U139C | ≤ -4.2
G83A C85U A106C C132G G140A | ≤ -4.2
C79A U90G C95A C99U C118G A119U | ≤ -4.2
U78C G92C C105U A106G C114U U148G | ≤ -4.2
U77G C87G C99G | ≤ -4.2
U82A C103A G141C | ≤ -4.2
G80U C85A | -2.27
C79G A91G G141C | ≤ -4.2
U82A C103G A113U A137C U148A | ≤ -4.2
G81U G94C U144A | -0.944
C79G A91G A113U | ≤ -4.2
